# According to PubChem BioAssay (Tox21):
# This list was built around the results that the source calls inconclusive (neither active nor inactive); the mix of calls is not that of the screen. For some assays here: Where the call is inconclusive, the potency comes from a doubtful curve fit. The source made the active and inactive calls. Unless noted, calls follow the shape of the dose curve; as a rule, active = well fitted curve in the direction sought with a large enough effect in the repeat runs; inconclusive = weak or mixed curves; inactive = no such curve, though single readings can be large; an effect the other way counts as inactive or inconclusive.
# Assays:
# [1] = qHTS assay to identify small molecule antagonists of the estrogen related receptor (ERR) signaling pathway from Tox21 library - cell viability counter screen (AID 1224834); also: potency is read from the fitted curve at half-maximal effect; nearly all actives have a fitted effect of over 30% in size
# Method in brief: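 Compounds in DMSO were pinned onto ERR cells that had been incubated for 6 h, and the plates were held at 37 C for 17.5 h. CellTiter-Fluor reagent was then added and fluorescence was measured after 30 min.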
# [2] = target: Luciferin 4-monooxygenase (Photinus pyralis) (UniProt P08659); assay: qHTS assay to identify small molecule inhibitors of firefly luciferase (AID 1224835); also: potency is read from the fitted curve at half-maximal effect; nearly all actives have a fitted effect of over 25% in size
# Sequence of UniProt P08659 (P08659 whole entry, looked up): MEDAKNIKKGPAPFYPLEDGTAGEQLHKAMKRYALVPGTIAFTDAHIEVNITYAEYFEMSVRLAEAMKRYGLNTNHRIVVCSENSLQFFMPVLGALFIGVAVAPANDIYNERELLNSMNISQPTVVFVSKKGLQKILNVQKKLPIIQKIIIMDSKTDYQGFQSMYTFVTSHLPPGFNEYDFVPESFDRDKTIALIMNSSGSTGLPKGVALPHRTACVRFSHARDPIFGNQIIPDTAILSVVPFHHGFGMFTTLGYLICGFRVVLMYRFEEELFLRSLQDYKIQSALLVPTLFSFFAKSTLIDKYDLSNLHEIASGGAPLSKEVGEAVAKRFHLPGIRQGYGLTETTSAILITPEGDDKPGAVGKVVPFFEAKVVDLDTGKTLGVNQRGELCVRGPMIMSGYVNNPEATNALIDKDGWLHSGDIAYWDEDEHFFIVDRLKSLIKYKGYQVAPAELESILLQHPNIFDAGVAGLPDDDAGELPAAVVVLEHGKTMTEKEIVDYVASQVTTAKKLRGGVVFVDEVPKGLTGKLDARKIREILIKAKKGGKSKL
# Method in brief: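 Inhibition of purified Photinus luciferase is measured by luminescence. Substrate levels (D-luciferin, ATP) sit at their KM values. Each compound is tested in a concentration series.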
# [3] = qHTS assay to identify small molecule agonists of H2AX (AID 1224845; active = well fitted activation curve with a large enough effect in the signal ratio in the repeat runs, not every such curve was filed as active; inconclusive = weak or mixed curves; the % refers to the signal ratio; also: potency is read from the fitted curve at half-maximal effect); conditions: CHO-K1 phospho-H2AX Ser139 HTRF, 3 h; series mostly up to 154 µM
# Method in brief: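 Phospho-H2AX Ser139 measured by HTRF (ex 320 nm; em 665 and 620 nm) after 24 hr antibody incubation. Compounds, 15 concentrations, 0.76% DMSO, were applied to CHO-K1 cells for 3hr at 37C before lysis.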
# [4] = qHTS RealTime-Glo MT Cell Viability Assay in HEK293 cells - 32 hour (AID 1224868); also: potency is read from the fitted curve at half-maximal effect; nearly all actives have a fitted effect of over 50% in size
# Method in brief: (§1)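 Tox21 10K qHTS, HEK293, 600 cells/well, RealTime-Glo reagent co-dispensed with cells; 5 h preincubation, compound by pintool, 37 C, luminescence at 0–40 h.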
# [5] = A CellTox Green Cytotoxicity Assay to monitor cytotoxicity in HEK293 cells - 40 hour (AID 1224871); also: potency is read from the fitted curve at half-maximal effect; nearly all actives have a fitted effect of over 45% in size
# Method in brief: (§2)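 Dead-cell fluorescence measured kinetically: asymmetric cyanine dye, HEK293, 600 cells/well, 5 h settle, 23 nL cpd/DMSO, 37 C, reads 0–40 h every 8 h.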
# [6] = qHTS RealTime-Glo MT Cell Viability Assay in HEK293 cells - 16 hour (AID 1224872); also: potency is read from the fitted curve at half-maximal effect; nearly all actives have a fitted effect of over 50% in size
# Method in brief: as §1
# [7] = qHTS RealTime-Glo MT Cell Viability Assay in HEK293 cells - 40 hour (AID 1224874); conditions: RealTime-Glo luminescence; max response: hits give low values; also: potency is read from the fitted curve at half-maximal effect; nearly all actives have a fitted effect of over 50% in size
# Method in brief: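 600 HEK293 cells per well, dispensed already mixed with RealTime-Glo MT reagents. Compound dosing came 5 h later. The same wells were read for luminescence at 0, 8, 16, 24, 32 and 40 h of exposure at 37 C.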
# [8] = A CellTox Green Cytotoxicity Assay to monitor cytotoxicity in HEK293 cells - 32 hour (AID 1224881); also: potency is read from the fitted curve at half-maximal effect; nearly all actives have a fitted effect of over 40% in size
# Method in brief: as §2
# [9] = qHTS RealTime-Glo MT Cell Viability Assay in HEK293 cells - 24 hour (AID 1224886); also: potency is read from the fitted curve at half-maximal effect; nearly all actives have a fitted effect of over 50% in size
# Method in brief: as §1
# [10] = qHTS assay to identify small molecule antagonists of the sonic hedgehog signaling (Shh) pathway (AID 1259369; calls by dose curve; also: potency is read from the fitted curve at half-maximal effect; nearly all actives have a fitted effect of over 45% in size)
# Method in brief: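 Stable Gli1-Luc reporter NIH/3T3 clone; quantitative HTS in stimulated mode with conditioned medium. Luminescence measured after 24hr compound treatment at 37 C.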
# [11] = target: Estrogen receptor beta (Homo sapiens) (UniProt Q92731); assay: qHTS assay to identify small molecule antagonists of the estrogen receptor beta (ER-beta) signaling pathway (AID 1259378; active = well fitted inhibition curve with a large enough effect in the signal ratio in the repeat runs, not every such curve was filed as active; inconclusive = weak or mixed curves, or effect the other way; inactive = no such curve, though single readings can be large or run the other way; the % refers to the signal ratio; also: potency is read from the fitted curve at half-maximal effect); conditions: ER-beta-UAS-bla HEK293T, beta-lactamase FRET ratio, 16 h; series mostly up to 92.4 µM
# Sequence of UniProt Q92731 (Q92731 whole entry, looked up): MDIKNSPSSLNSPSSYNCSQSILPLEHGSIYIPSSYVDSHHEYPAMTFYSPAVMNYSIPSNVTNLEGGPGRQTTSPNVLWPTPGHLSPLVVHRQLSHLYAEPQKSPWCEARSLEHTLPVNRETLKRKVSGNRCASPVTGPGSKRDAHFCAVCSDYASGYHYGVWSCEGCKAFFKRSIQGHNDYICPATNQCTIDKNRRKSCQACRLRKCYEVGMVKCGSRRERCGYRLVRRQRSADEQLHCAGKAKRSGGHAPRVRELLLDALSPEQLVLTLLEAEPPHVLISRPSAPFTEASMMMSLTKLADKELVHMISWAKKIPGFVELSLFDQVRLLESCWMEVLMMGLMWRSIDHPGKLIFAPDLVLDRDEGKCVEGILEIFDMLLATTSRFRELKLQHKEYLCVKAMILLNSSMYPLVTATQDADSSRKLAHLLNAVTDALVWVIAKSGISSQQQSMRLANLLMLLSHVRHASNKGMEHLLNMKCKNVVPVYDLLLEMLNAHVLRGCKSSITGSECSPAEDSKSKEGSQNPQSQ
# Method in brief: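 Antagonist mode: compounds added to beta-lactamase reporter HEK293T ER-beta-UAS cells stimulated with E2 (1nM final), 16 hr at 37C. LiveBLAzer B/G FRET substrate, 2 hours room temperature, fluorescence read-out.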
# [12] = target: Progesterone receptor (Homo sapiens) (UniProt P06401); assay: qHTS assay to identify small molecule agonists of the progesterone receptor (PR) signaling pathway (AID 1346784; calls by dose curve; also: nearly all actives have a fitted effect of over 30% in size); conditions: PR-UAS-bla HEK293T, beta-lactamase FRET ratio, 16 h; activation: at 92.4 µM (top of the series) unless noted
# Sequence of UniProt P06401 (P06401 whole entry, looked up): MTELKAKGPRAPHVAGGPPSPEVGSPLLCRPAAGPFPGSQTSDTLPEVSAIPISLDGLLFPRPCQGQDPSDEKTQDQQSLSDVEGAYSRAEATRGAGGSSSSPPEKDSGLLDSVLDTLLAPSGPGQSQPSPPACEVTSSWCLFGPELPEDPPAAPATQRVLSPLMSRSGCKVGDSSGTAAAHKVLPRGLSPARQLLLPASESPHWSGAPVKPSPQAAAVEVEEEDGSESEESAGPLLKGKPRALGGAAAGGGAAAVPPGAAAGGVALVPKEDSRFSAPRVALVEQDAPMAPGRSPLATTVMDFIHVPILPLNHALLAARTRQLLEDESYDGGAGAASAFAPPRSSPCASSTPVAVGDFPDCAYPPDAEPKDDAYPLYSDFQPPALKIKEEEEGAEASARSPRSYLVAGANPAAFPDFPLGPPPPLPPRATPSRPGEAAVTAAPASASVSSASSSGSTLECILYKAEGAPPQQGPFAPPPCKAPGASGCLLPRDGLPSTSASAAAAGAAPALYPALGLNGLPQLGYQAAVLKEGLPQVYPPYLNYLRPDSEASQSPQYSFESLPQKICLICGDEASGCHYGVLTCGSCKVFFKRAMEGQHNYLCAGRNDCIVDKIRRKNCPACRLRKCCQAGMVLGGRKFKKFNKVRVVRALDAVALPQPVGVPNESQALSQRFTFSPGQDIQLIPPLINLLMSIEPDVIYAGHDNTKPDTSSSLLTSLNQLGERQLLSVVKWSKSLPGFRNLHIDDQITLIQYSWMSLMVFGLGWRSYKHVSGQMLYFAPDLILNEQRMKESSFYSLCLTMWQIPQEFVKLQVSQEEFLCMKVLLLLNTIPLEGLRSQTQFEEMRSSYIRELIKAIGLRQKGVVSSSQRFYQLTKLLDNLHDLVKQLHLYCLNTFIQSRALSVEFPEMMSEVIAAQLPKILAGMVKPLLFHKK
# Method in brief: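 Beta-lactamase reporter read-out: after 16 hr compound treatment at 37C and a further 2 hr at room temperature with LiveBLAzer B/G FRET substrate, fluorescence was measured in PR-UAS-bla HEK 293T cells grown in 2% charcoal-stripped serum.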
# [13] = target: Progesterone receptor (Homo sapiens) (UniProt P06401); assay: qHTS assay to identify small molecule antagonists of the progesterone receptor (PR) signaling pathway (AID 1346795; active = well fitted inhibition curve with a large enough effect in the signal ratio in the repeat runs, not every such curve was filed as active; inconclusive = weak or mixed curves; the % refers to the signal ratio; also: potency is read from the fitted curve at half-maximal effect); conditions: PR-UAS-bla HEK293T, beta-lactamase FRET ratio, 16 h; series mostly up to 92.4 µM
# Method in brief: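 Read-out is fluorescence from the LiveBLAzer B/G FRET substrate, cleaved by a UAS-controlled beta-lactamase in PR-UAS-bla HEK293T cells after 16 hr exposure to compound plus 1 nM promegestone (final), followed by 2 hr at room temperature.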
# [14] = qHTS assay to identify small molecule agonists of the TGF-beta/Smad signaling pathway (AID 1346859; active = well fitted activation curve with a large enough effect in the signal ratio in the repeat runs, not every such curve was filed as active; inconclusive = weak or mixed curves; the % refers to the signal ratio)
# Method in brief: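 SBE-bla HEK 293T, 4,000 cells/well, plated o/n; cpd in DMSO, 5 hr, 37 C/5% CO2; B/G FRET substrate 2 hr RT; ex 405, em 460/530 nm.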
# [15] = Caspase-3/7 induction in CHO-K1 cells by small molecules, qHTS cell viability counter screen (AID 1346979); also: potency is read from the fitted curve at half-maximal effect; nearly all actives have a fitted effect of over 35% in size
# Method in brief: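 Cells (CHO-K1, wild type) are plated at 1,500 per well and incubated 5hr. Test compounds in DMSO are then pinned in, followed by 16hr at 37C and 5% CO2. Viability is read by CellTiter-Fluor fluorescence after 1hr.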
# [16] = target: Cytochrome P450 2D6 (Homo sapiens) (UniProt P10635); assay: Cytochrome P450 Family 2 Subfamily D Member 6 (CYP2D6) small molecule antagonists: luciferase reporter qHTS assay (AID 1671196)
# Sequence of UniProt P10635 (P10635 whole entry, looked up): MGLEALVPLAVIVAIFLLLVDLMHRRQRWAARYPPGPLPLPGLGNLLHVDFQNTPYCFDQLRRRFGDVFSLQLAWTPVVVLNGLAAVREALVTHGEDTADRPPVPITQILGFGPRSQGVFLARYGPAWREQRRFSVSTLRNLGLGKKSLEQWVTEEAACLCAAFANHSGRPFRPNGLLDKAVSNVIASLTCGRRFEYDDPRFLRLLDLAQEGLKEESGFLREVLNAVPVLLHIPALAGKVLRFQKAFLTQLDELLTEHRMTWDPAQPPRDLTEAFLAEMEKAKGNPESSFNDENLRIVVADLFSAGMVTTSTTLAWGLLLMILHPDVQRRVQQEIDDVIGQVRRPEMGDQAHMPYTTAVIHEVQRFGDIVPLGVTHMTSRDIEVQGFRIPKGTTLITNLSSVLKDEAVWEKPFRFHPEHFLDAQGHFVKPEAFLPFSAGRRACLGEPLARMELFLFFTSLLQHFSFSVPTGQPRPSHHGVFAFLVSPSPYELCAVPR
# Method in brief: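 Test chemicals meet CYP2D6 plus proluciferin substrate (10 min, RT); NADPH regenerating solution then drives turnover for 1 h. Detection reagent halts the reaction; luminescence measured after 20 min.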
# [17] = target: Cytochrome P450 3A4 (Homo sapiens) (UniProt P08684); assay: Cytochrome P450 Family 3 Subfamily A Member 4 (CYP3A4) small molecule antagonists: luciferase reporter qHTS assay (AID 1671201)
# Sequence of UniProt P08684 (P08684 whole entry, looked up): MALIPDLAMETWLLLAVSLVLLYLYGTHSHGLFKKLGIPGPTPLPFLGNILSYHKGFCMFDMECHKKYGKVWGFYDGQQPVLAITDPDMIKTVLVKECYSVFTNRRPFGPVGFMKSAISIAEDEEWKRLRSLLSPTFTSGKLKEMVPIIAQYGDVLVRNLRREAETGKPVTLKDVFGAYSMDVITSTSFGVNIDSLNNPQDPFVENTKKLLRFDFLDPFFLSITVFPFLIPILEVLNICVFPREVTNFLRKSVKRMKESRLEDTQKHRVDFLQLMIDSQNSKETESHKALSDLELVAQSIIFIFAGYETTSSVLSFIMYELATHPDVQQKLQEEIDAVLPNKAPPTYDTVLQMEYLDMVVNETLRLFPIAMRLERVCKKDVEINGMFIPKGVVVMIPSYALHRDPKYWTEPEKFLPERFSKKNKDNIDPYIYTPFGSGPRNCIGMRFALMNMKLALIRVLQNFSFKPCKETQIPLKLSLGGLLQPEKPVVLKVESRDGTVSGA
# Method in brief: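 Compounds in DMSO were pin-transferred onto CYP3A4 enzyme-substrate mix and held 10 min at room temperature. NADPH regenerating solution started the reaction for 1 h; luciferin detection reagent stopped it, and luminescence was read after 20 min.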
# Tags tell the direction and shape of the fitted curve or compound fluorescence and quenching.
compound,measurement,setting,value
O=C(c1ccccc1O)c1ccccc1O,Potency,[1],"inconclusive: 60.5 µM [cytotoxic, partial curve, poor fit]"
same,Potency,[2],"inconclusive: 55.8 µM [inhibitor, partial curve]"
same,Potency,[3],"inconclusive: 112 µM [rising, single point]"
same,Potency,[4],"inconclusive: 54.4 µM [cytotoxic, partial curve, poor fit]"
same,Potency,[5],active: 48.5 µM
same,Potency,[6],"inconclusive: 61 µM [cytotoxic, partial curve, poor fit]"
same,Potency,[7],"inconclusive: 54.4 µM [cytotoxic, partial curve, poor fit]"
same,Potency,[8],"inconclusive: 48.5 µM [activator, partial curve, poor fit]"
same,Potency,[9],"inconclusive: 61 µM [cytotoxic, partial curve, poor fit]"
same,Potency,[10],"inconclusive: 53.9 µM [inhibitor, single point]"
same,Potency,[11],"inconclusive: 30.3 µM [rising, partial curve, poor fit]"
same,Potency,[12],inactive
same,Potency,[13],active: 27 µM
same,Potency,[14],inactive
same,Potency,[15],"inconclusive: 76.2 µM [cytotoxic, single point]"
same,Potency,[16],active: 24.9 µM
same,Potency,[17],"inconclusive: 88.5 µM [inhibitor, single point]"
